Test results as given in article PMC11402599, “Structural basis of TRPV1 modulation by endogenous bioactive lipids” (Nature Structural & Molecular Biology, 2024).

Biological target: the molecule itself
Assay: cryo-EM structure; TRPV1 purified and reconstituted into MSP2N2 lipid nanodiscs (soybean polar lipids or defined lipids); empty pocket, or with PI-Br4, PIP2-Br4, diC8-PIP2 or LPA; grids prepared at 4, 15 or 25 °C; C4, C2 or C1 symmetry

B1: Recombinant minimal functional rat TRPV1 ([…] and […]) (domain or fragment)
chain: not shown
notes: TRPV1, rat, minimal functional construct: […] and […] ([…] left out); TEV protease was added to the nanodisc mixture for 3 h before size-exclusion chromatography; also called minimal TRPV1; transient receptor potential cation channel subfamily V member 1
stoichiometry N: 4
